We go through 27 compounds from the antibiotic and cytotoxicity screens of Wong et al. (2023).

In one test the test system is HSkMC. In words: cytotoxicity call (relative viability < 0.9). Conditions: 10 µM.
The next test concerns HepG2. The test is described as follows: cytotoxicity call (relative viability < 0.9). As to conditions: 10 µM.
For the next test, the system named is S. aureus RN4220. The test is described as follows: growth inhibition call (relative growth <= 0.2). Conditions: 50 µM.

Some of the results follow.

Consider `CN(C)C(=O)C[C@H]1CC[C@H]2[C@H](COc3ccc(NS(=O)(=O)c4cccc(F)c4)cc3C(=O)N2C)O1`, for which the cytotoxicity call in the test on HSkMC and in the test on HepG2 was “inactive” in each case. In the test on S. aureus RN4220, the growth inhibition call was “inactive”.
Regarding `COc1ccc(CN(C)C[C@H]2OCCCC[C@@H](C)Oc3ccc(NS(=O)(=O)c4cccs4)cc3C(=O)N([C@@H](C)CO)C[C@@H]2C)cc1`, the cytotoxicity call in the test on HSkMC and in the test with HepG2 was “inactive” throughout. Also, the growth inhibition call in the test with S. aureus RN4220 is “inactive”.
With `CCCc1nn(C)c2c(=O)[nH]c(-c3cc(S(=O)(=O)N4CCN(C)CC4)ccc3OCC)nc12.O=C(O)CC(O)(CC(=O)O)C(=O)O`, the cytotoxicity call with HSkMC was “inactive”. For the same compound, the cytotoxicity call in the test on HepG2 is “active”. The growth inhibition call in the test on S. aureus RN4220 is “inactive”.
Turning to `O=C(C[C@H]1CC[C@H](NC(=O)c2cnccn2)[C@@H](CO)O1)NCc1ccccc1F`, the cytotoxicity call in the test on HSkMC and in the test on HepG2 was “inactive” in each case. In addition, the growth inhibition call in the test on S. aureus RN4220 was “inactive”.
Consider `COc1ccc([C@H]([C@@H](O)Cc2ccccc2)N(CC#C[C@@H](O)c2ccccc2)[C@@H](Cc2ccccc2)C(OC)OC)cc1`, for which the cytotoxicity call in the test with HSkMC and with HepG2 was “inactive” in each case. In the test on S. aureus RN4220, the growth inhibition call was “inactive”.
For the compound `C=CCC[C@@H](Cc1ccc(F)cc1)C(=O)OC[C@@H]1CCCN1C(=O)[C@H](CC=C)CC(=O)N(CCO)Cc1ccccc1`, the cytotoxicity call in the test with HSkMC and in the test on HepG2 was “inactive” in each case. For the same compound, in the test on S. aureus RN4220, the growth inhibition call is “inactive”.
As to `O=C(C[C@@H]1C[C@H]2c3cc(NC(=O)NC4CCCC4)ccc3O[C@H]2[C@H](CO)O1)NCCN1CCCCC1`, the cytotoxicity call with HSkMC and in the test with HepG2 was “inactive” in each case. The growth inhibition call in the test on S. aureus RN4220 was “inactive”.
Regarding `C[C@@H]1CN([C@@H](C)CO)S(=O)(=O)c2ccc(C#CC3(O)CCCC3)cc2O[C@H]1CN(C)C(=O)c1ccccc1`, the cytotoxicity call with HSkMC and with HepG2 was “inactive” throughout. Also, in the test on S. aureus RN4220, the growth inhibition call is “inactive”.
`CC(C)C#Cc1cnc2c(c1)C(=O)N([C@@H](C)CO)C[C@H](C)[C@H](CN(C)S(=O)(=O)c1cn(C)cn1)O2`: the cytotoxicity call in the test on HSkMC and in the test with HepG2 was “inactive” in each case. Further, the growth inhibition call with S. aureus RN4220 was “inactive”.
For the compound `C[C@@H]1CN([C@H](C)CO)C(=O)c2cc(NC(=O)Cc3ccccc3)ccc2O[C@@H]1CN(C)S(C)(=O)=O`, the cytotoxicity call with HSkMC and in the test on HepG2 was “inactive” in each case. In the test with S. aureus RN4220, the growth inhibition call is “inactive”.
Consider `Cc1ccc(S(=O)(=O)Nc2ccc3c(c2)C(=O)N([C@H](C)CO)C[C@@H](C)[C@H](CN(C)Cc2ccc(C(=O)O)cc2)OCCCC[C@@H](C)O3)cc1`, for which the cytotoxicity call in the test on HSkMC and in the test on HepG2 was “inactive” each time. Besides, in the test with S. aureus RN4220, the growth inhibition call is “inactive”.
For `O=C(C1=C[C@@H](c2coc3ccccc3c2=O)C[C@@H](OCCCCO)O1)N1CCN(Cc2ccc3c(c2)OCO3)CC1`, the cytotoxicity call in the test on HSkMC and in the test with HepG2 was “inactive” throughout. In addition, the growth inhibition call in the test with S. aureus RN4220 was “inactive”.
Consider `COc1ccc(S(=O)(=O)N(C)C[C@@H]2OCCCC[C@@H](C)Oc3ccc(NC(=O)Nc4ccc5c(c4)OCO5)cc3C(=O)N([C@@H](C)CO)C[C@H]2C)cc1`, for which the cytotoxicity call with HSkMC and in the test on HepG2 was “inactive” in each case. Besides, in the test with S. aureus RN4220, the growth inhibition call was “inactive”.
Turning to `COCC(=O)Nc1ccc2c(c1)[C@H]1C[C@@H](CC(=O)N3CCOCC3)O[C@H](CO)[C@H]1O2`, the cytotoxicity call in the test with HSkMC and in the test with HepG2 was “inactive” each time. For the same compound, the growth inhibition call in the test with S. aureus RN4220 is “inactive”.
With `CC(C)NC(=O)N(C)C[C@H]1Oc2c(NC(=O)C3CCCCC3)cccc2C(=O)N([C@@H](C)CO)C[C@H]1C`, the cytotoxicity call in the test with HSkMC and in the test on HepG2 was “inactive” throughout. For the same compound, the growth inhibition call in the test with S. aureus RN4220 is “inactive”.
On to `COc1ccc(S(=O)(=O)N(C)C[C@@H]2OCCCC[C@@H](C)Oc3ccc(NC(=O)NC4CCCCC4)cc3C(=O)N([C@H](C)CO)C[C@@H]2C)cc1`, for which the cytotoxicity call with HSkMC and with HepG2 was “inactive” throughout. Also, the growth inhibition call in the test on S. aureus RN4220 was “inactive”.
On to `CN(C)[C@@H]1C(=O)[C@@H](C(N)=O)C(=O)[C@@]2(O)C(=O)[C@H]3C(=O)c4c(O)ccc(Cl)c4[C@@H](O)[C@H]3C[C@@H]12`, for which the cytotoxicity call in the test on HSkMC and in the test with HepG2 was “inactive” in each case. Further, the growth inhibition call in the test with S. aureus RN4220 is “active”.
On to `CN(C)C(=O)C[C@H]1CC[C@@H](NC(=O)C2CCOCC2)[C@@H](CO)O1`, for which the cytotoxicity call in the test on HSkMC and in the test with HepG2 was “inactive” each time. Also, the growth inhibition call in the test on S. aureus RN4220 was “inactive”.
For `C[C@H]1CN([C@@H](C)CO)C(=O)c2cc(NC(=O)CCCN(C)C)ccc2O[C@@H]1CN(C)C(=O)Nc1ccc2c(c1)OCO2`, the cytotoxicity call in the test with HSkMC and with HepG2 was “inactive” each time. Also, the growth inhibition call with S. aureus RN4220 is “inactive”.
Consider `Cc1noc(C)c1S(=O)(=O)Nc1ccc2c(c1)CC(=O)N([C@@H](C)CO)C[C@H](C)[C@@H](CN(C)S(=O)(=O)c1ccc(F)cc1)O2`, for which the cytotoxicity call in the test on HSkMC and in the test on HepG2 was “inactive” in each case. The growth inhibition call in the test on S. aureus RN4220 is “inactive”.
As for `Cc1noc(C)c1S(=O)(=O)N(C)C[C@@H]1Oc2ccc(NC(=O)CCC(F)(F)F)cc2CC(=O)N([C@@H](C)CO)C[C@H]1C`, the cytotoxicity call in the test with HSkMC and in the test on HepG2 was “inactive” in each case. Moreover, in the test with S. aureus RN4220, the growth inhibition call is “inactive”.
With `C[C@@H]1CN([C@@H](C)CO)C(=O)c2cccc(NC(=O)Nc3ccc(C(F)(F)F)cc3)c2O[C@@H]1CN(C)Cc1ccc(Cl)c(Cl)c1`, the cytotoxicity call with HSkMC and in the test on HepG2 was “active” throughout. Also, the growth inhibition call in the test on S. aureus RN4220 is “inactive”.
With `CC(C)NC(=O)N(C)C[C@@H]1Oc2cc(C#Cc3ccccn3)ccc2S(=O)(=O)N([C@@H](C)CO)C[C@@H]1C`, the cytotoxicity call in the test with HSkMC and in the test with HepG2 was “inactive” each time. Further, the growth inhibition call in the test on S. aureus RN4220 was “inactive”.
With `O=C(CCCCCCC(=O)Nc1ccccc1O)N/N=C/[C@H](O)[C@@H](O)[C@@H](O)[C@H](O)C(=O)O`, the cytotoxicity call in the test with HSkMC and in the test with HepG2 was “inactive” in each case. Also, the growth inhibition call in the test on S. aureus RN4220 is “inactive”.
`O=c1cc[nH]c(=O)[nH]1`: the cytotoxicity call in the test on HSkMC (human skeletal muscle cells) and in the test on HepG2 was “inactive” in each case. In addition, in the test with S. aureus RN4220, the growth inhibition call is “inactive”.
In the case of `C[C@@H]1CCCCO[C@H](CN(C)Cc2ccc3c(c2)OCO3)[C@@H](C)CN([C@@H](C)CO)C(=O)c2cc(NC(=O)NC3CCCCC3)ccc2O1`, in the test with HSkMC, the cytotoxicity call was “inactive”. The cytotoxicity call in the test on HepG2 was “active”. Further, the growth inhibition call with S. aureus RN4220 is “inactive”.
For `C[C@@H]1CCCCO[C@@H](CN(C)Cc2ccc(Cl)c(Cl)c2)[C@H](C)CN([C@@H](C)CO)C(=O)c2cc(N(C)C)ccc2O1`, the cytotoxicity call with HSkMC and in the test on HepG2 was “inactive” each time. The growth inhibition call in the test with S. aureus RN4220 is “inactive”.
